Experimental data from paper PMC12136788.
This is one part of the list.

T1: UNK ZnF1-3 (human, UniProt Q9C0B0 31-174)
T1 sequence: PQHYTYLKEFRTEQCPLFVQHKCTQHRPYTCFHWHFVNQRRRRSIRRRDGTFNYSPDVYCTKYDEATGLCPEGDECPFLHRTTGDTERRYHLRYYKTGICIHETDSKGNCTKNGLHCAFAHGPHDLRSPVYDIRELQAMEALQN

B1: chr4:57314706:57314707:+_ENSG00000128050_ENST00000264221|hu_mus|hu_hu_hu_mus_True|1_38 (ssRNA)
RNA: GGGAGUUCUACAGUCCGACGAUCCAGAAUUUCAAAAAUAGCUUGUGUGGCAUGACUCAUGAUGUCCACUUCAGUCUGCCCUAUAACAAGGCCAGCAAAGCAAAAUUUUGCAGCAAUGAGUUGCUCCUCAGACCACUGUGGGUCCAACAGAGGAUUGAGCAUCA
B2: chr2:160604994:160604995:+_ENSG00000136536_ENST00000409591|hu_hu|motif|central (ssRNA)
RNA: GGGAGUUCUACAGUCCGACGAUCCCUUGAAGAUUCAUCUCUUCCCUCUCGCCUCCUUCUAGAGAACAAAGGUGUGCAUCGGUUUCGGAGUGAGGAAGAUAACCAUGGUCCUGUAUUUCUACCUUCAGAUUCUUGGUUAAAAUUCAACAGAGGAUUGAGCAUCA
B3: chr12:53619734:53619735:+_ENSMUSG00000035133_ENSMUST00000110725|mus_hu|FALSE|FALSE (ssRNA)
RNA: GGGAGUUCUACAGUCCGACGAUCUAUAUACCCAUGAACUAGUUCAUCUUUUCUUACUCCAAUUGAAGAGUGGUAUGAUAAUAUUGUGAUCUGUAUUCGCCUCCUUUUUUCACCAAUGAUUUUAUCAAGCAUUAGGGAAUUAUUCAACAGAGGAUUGAGCAUCA
B4: chr5:71490574:71490575:+_ENSG00000131711_ENST00000296755|hu_mus|FALSE|FALSE (ssRNA)
RNA: GGGAGUUCUACAGUCCGACGAUCUUUCUCAGCGGGGUUGGCCGGAUGCCACACAAUCAAAGAUGAGACUGAGGUUAAGUAGGAAAUCGGGAUGUCUACUUCUUGACCAUUGGGCAGGAUUAGUUCGGCCUUGUCUUUGUUGGUCAACAGAGGAUUGAGCAUCA
B5: chr7:87826631:87826632:+_ENSG00000008277_ENST00000398209|hu_hu|FALSE|FALSE (ssRNA)
RNA: GGGAGUUCUACAGUCCGACGAUCGCAUCAGCAAACUGUGGAGGCCAGAAGUUUUGCUGGGCAUUUUGUUCUCUCACUCAACUACUCACUCAAUAAAACUGCCUCCAGACUGUGCACAGGUUAAAGGGAUAUCACAUGUUUUGGCAACAGAGGAUUGAGCAUCA
B6: 95033280_95033856_1284_CDS_ENSG00000196305_ENST00000443024|human|control|control (ssRNA)
RNA: GGGAGUUCUACAGUCCGACGAUCGUAGCUGUGAGUGAAGGUGGUGGCAACCAGAAGUCGGCCUUGUUCCUUCAAAGUCCUGAUGAUACUUUUGUCAGCAUCCUUCACAUACUGUCCUGCGAAAUCUGUCACCUCCGUUGUGAACAACAGAGGAUUGAGCAUCA
B7: chr7:44244176:44244177:+_ENSG00000106636_ENST00000223369|hu_mus|hu_hu_hu_mus_False|58_98 (ssRNA)
RNA: GGGAGUUCUACAGUCCGACGAUCACUGUCGCUCCGGACGUAGACGUGGCAAAGAUACUCUUGUUCUUUGACAGAAGCUCUAGUGCCUUUCCCCGAGCGUUCCACAAUCAGUUGACUUGUAAAGGUCAUGAAUUCCUGCACACUCAACAGAGGAUUGAGCAUCA
B8: chr6:40197388:40197389:+_ENSMUSG00000057716_ENSMUST00000061740|mus_hu|FALSE|FALSE (ssRNA)
RNA: GGGAGUUCUACAGUCCGACGAUCGAGACACUGGGGUGGAUUUAUUCCACCUCUGUUUGGGUGCUAGCCACUAAGACUGUUAUUUUGGGAUUCAUGGCCUUGAAUAUCAAGAGGGAAAGGAAGAGGAUGGAAAGAGUCAAGAGUCAACAGAGGAUUGAGCAUCA
B9: chr5:71490377:71490378:+_ENSG00000131711_ENST00000296755|hu_hu|motif|central (ssRNA)
RNA: GGGAGUUCUACAGUCCGACGAUCACCUACUCCCAUUUUUUGGAAAAGAAUGACAGGAUCAAUAGUAUUGCCUACACUUCGGAACAGAGGUUCUGGUUUCAUGGACAAUUUGUUUAGGUACUGGAGAGUGAAGCAGGCUUCUUCCAACAGAGGAUUGAGCAUCA
B10: 165827124_165829745_1052_3pUTR_ENSG00000112541_ENST00000354448|human|control|control (ssRNA)
RNA: GGGAGUUCUACAGUCCGACGAUCGGCAUGCACAGGAUGUUCCGCGUGGUGUAGCCUGUGUACAAGUCUACUUCUCUGUUAAAGCGUGGGUCUGCAUAGGCAUCUGGAAUGUUCAGGACUUCCCCUGUUCUUGCUACUUGGCCACAACAGAGGAUUGAGCAUCA
B11: chr1:58468927:58468928:-_ENSMUSG00000026034_ENSMUST00000148330|mus_mus|mus_mus_mus_hu_False|28_98 (ssRNA)
RNA: GGGAGUUCUACAGUCCGACGAUCAAUUACUGAAAAAUGAAAGAUGUACCUUAGCUAUGUACUUAAUGAACCAAAUUACCCAAACAAAAUAAACAUGGCAAUAUAAAAAGCUAUACAAUUUACAAAGCUGUACAAAAUAACUUACAACAGAGGAUUGAGCAUCA
B12: chr7:7679991:7679992:-_ENSG00000106399_ENST00000396682|hu_hu|hu_hu_hu_mus_False|18_68 (ssRNA)
RNA: GGGAGUUCUACAGUCCGACGAUCUGGGAUGAAUCUUUUCCAGCUUCCCCACGAAGCACACGGGCCGGUCGAUGAAUUGUGGUAACAUGCUGGCGUUGACGCGCGCUUUGGGGAGCUCCAUCAUGUCCUCCAUGAUUCUGCCGCCAACAGAGGAUUGAGCAUCA
B13: chr2:64119684:64119685:-_ENSG00000143952_ENST00000409558|hu_hu|FALSE|FALSE (ssRNA)
RNA: GGGAGUUCUACAGUCCGACGAUCACAUCGAAAGUAACUUAAAAACAAGGAUCCAAGGGGGCCAUACUUCAUAUGUUAUCUAAAUGUUAAUAUGAGAACUCAAAAGUAGGCAGAUUAUAUGAAUACAUAUUCUUACCUCUGCUACAACAGAGGAUUGAGCAUCA
B14: chr4:39918803:39918804:-_ENSG00000121892_ENST00000303538|hu_mus|FALSE|FALSE (ssRNA)
RNA: GGGAGUUCUACAGUCCGACGAUCUACGUGUUCAGACAGGUCGCUGACUGAUGAUCUGCCCAGCACCAGGACUUGAUUGAAAAAAUUGGCAAUACAUGCUUCAAUAGUCUGGACUGUCCUUUUCAGUAGGACUUUUGCAAGGUCCAACAGAGGAUUGAGCAUCA
B15: chr11:53076483:53076484:-_ENSMUSG00000020361_ENSMUST00000020630|mus_mus|motif|central (ssRNA)
RNA: GGGAGUUCUACAGUCCGACGAUCUUCAAAUAAUUUUGGUCUUUCUUCAGAUUCCUGGAACCGUGUCUUAAUGGGUUGACCGGAACUUUUUAAUUCAGCCAAUUUGUCUACAUAAACUUGCUUUGGUUGAUCUUCUCCAUCUUCCAACAGAGGAUUGAGCAUCA
B16: chr7:75932113:75932114:+_ENSG00000106211_ENST00000248553|hu_hu|hu_hu_hu_mus_False|58_58 (ssRNA)
RNA: GGGAGUUCUACAGUCCGACGAUCCUGCGACCACUCAUCGGGCAACCGGGGCACCCCGAAAGCUUGAUCGAAGAGGCGGCUAUGCGGAGGGUACCAGUCCCGGAAUGGUUCCCAGCUCGGGCUCCGCAGCAGCGAGAAGGGCACCAACAGAGGAUUGAGCAUCA
B17: chr2:63824656:63824657:+_ENSG00000014641_ENST00000394423|hu_hu|FALSE|FALSE (ssRNA)
RNA: GGGAGUUCUACAGUCCGACGAUCGGUAUUGGCUGGAUUACCCACAACAAUAACCUUAACUGACUUCUUGGCGUAUUUAUCUAAGGCUGCACCCUGGGAUUUGAAGAUUUUCACAUUUGCUUUCAGUAAAUCUUUUCUCUCCAUCAACAGAGGAUUGAGCAUCA
B18: 87340232_87340352_1355_CDS_ENSMUSG00000003382_ENSMUST00000170036|mouse|control|control (ssRNA)
RNA: GGGAGUUCUACAGUCCGACGAUCGUCACUGGGAGUGCUAAUGGACACAGAGGGCCAGGUGGGUGAGGGGUGGGCAAACCCGGUGCCUUUCCCCUCUUCUAUGGUCCUGCUCCGCAUGCUGUCCACUUCUUGGGUCUGUUCCUCCAACAGAGGAUUGAGCAUCA
B19: chr19:60949100:60949101:-_ENSMUSG00000024997_ENSMUST00000025961|mus_mus|FALSE|FALSE (ssRNA)
RNA: GGGAGUUCUACAGUCCGACGAUCGGCAGAGGCAGACCACAGUAUGUCUGUCAAACAGGUUCUUCUAGAAGCAACAGGCCUAAGAACUGUUGAGGCAGAAAUACUCCGGGAAAUAGCACUUGCAUGACGAGCAACCGAGGACCACAACAGAGGAUUGAGCAUCA
B20: chr7:141438946:141438947:+_ENSG00000106028_ENST00000265304|hu_hu|motif|central (ssRNA)
RNA: GGGAGUUCUACAGUCCGACGAUCAAGUACCUGUAAUACAGGUCUUCGAAACAUGGCUUCUAUUUUCUUUUCUUACAGUCGGAUCUUUAGGCUUUUCCUGACGAUCUAACCCGAGCAGCCCAGCCACGCAGGGGAUCACUUCCGCAACAGAGGAUUGAGCAUCA
B21: chr4:95690885:95690886:+_ENSMUSG00000028572_ENSMUST00000156910|mus_mus|FALSE|FALSE (ssRNA)
RNA: GGGAGUUCUACAGUCCGACGAUCAUAAUUUUUAGAAAAUGUUAAAUAGCAUGCUAAGUAAUUUUAAAGUCUUAUUUUACUAAAAGACACAGGCAAGCAGACACCAUAAACAUACAAAAAUACAAACCAACAGUGUAAAAUGUACAACAGAGGAUUGAGCAUCA
B22: chr10:108335898:108335899:-_ENSG00000108018_ENST00000263054|hu_mus|FALSE|FALSE (ssRNA)
RNA: GGGAGUUCUACAGUCCGACGAUCAACUCUUUUACACACAGUAUAUGUUUCCAGGUGAGAAAACCAGAGGUAUUUGGCAAAGAAAGAUUUGUGGGGAGGAGAUAGAAGGUAAAUAUAACUGAAGCCAGCUGGGCAGGACACAGCCAACAGAGGAUUGAGCAUCA

biological target: T1, UNK ZnF1-3; test: nsRBNS (natural sequence RNA bind-n-seq); RBNS binding buffer (assumed for nsRBNS): 25 mM Tris pH 7.5, 150 mM KCl, 3 mM MgCl2, 0.01% Triton X-100, 500 ug/ml BSA, 20 U/ml SUPERase-In, 4 C; UNK is unkempt and MSI1 is Musashi-1; names of the RNAs are library labels; protein concentration not given here; high values mean tight binding

Row | Binder | binding signal
1 | B1 | 0.781 enrichment R
2 | B2 | 1.2 enrichment R
3 | B3 | 0.616 enrichment R
4 | B4 | 1.07 enrichment R
5 | B5 | 1.76 enrichment R
6 | B6 | 0.522 enrichment R
7 | B7 | 0.642 enrichment R
8 | B8 | 1.37 enrichment R
9 | B9 | 1.19 enrichment R
10 | B10 | 0.591 enrichment R
11 | B11 | 1.35 enrichment R
12 | B12 | 0.959 enrichment R
13 | B13 | 1.32 enrichment R
14 | B14 | 0.573 enrichment R
15 | B15 | 0.462 enrichment R
16 | B16 | 0.965 enrichment R
17 | B17 | 0.575 enrichment R
18 | B18 | 0.515 enrichment R
19 | B19 | 1.45 enrichment R
20 | B20 | 0.597 enrichment R
21 | B21 | 1.91 enrichment R
22 | B22 | 2.97 enrichment R
